Laboratory results reported in the supplement of paper PMC4723716.
± gives the uncertainty stated by the source. In all, about 9,900 compounds were measured (“viability index relative to DMSO control”: median about 1, lowest 2% from about 0.85 on). This is one part of the list.

Each compound was assayed on Plasmodium falciparum NF54 stage V gametocytes (assay: viability index relative to DMSO control (fraction); higher = less gametocyte killing). Settings: 2.5 µM, library set: Broad Institute DOS, incubation time: 72 h.
Summary of the method: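 In 1,536-well plates, 10 µl of serum-free medium holding P. falciparum NF54 stage V gametocytes (0.75% gametocytemia, 1.25% hematocrit) received compound at 2.5 µM for 72 hr at 37°C in low oxygen. After one to two hours with 3 µl of 2.5 µM MitoTracker Red CMXRos containing 0.13% saponin, red particles of 20–70 µm2 were counted in a single field per well. Viability index is reported as the particle count over the plate mean of wells treated with solvent only.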

SMILES | viability index
COc1ccc2c3c([C@H](CO)N(C[C@]33CCN(Cc4ccccc4OC)CC3)C(C)=O)n(C)c2c1 | 1.1 ± 0.021
C[C@H]1CN([C@@H](C)CO)C(=O)c2cccc(NC(=O)NC3CCCCC3)c2O[C@@H]1CN(C)Cc1ccc(C(F)(F)F)cc1 | 0.9452 ± 0.0071
N#C[C@@H]1[C@@H](c2ccccc2)[C@@H](CO)N1C(=O)c1ccc2c(c1)OCO2 | 1.099 ± 0.0033
COc1ccc(NC(=O)N2CCCCN3[C@H](C2)[C@@H](c2ccc(-c4ccccc4F)cc2)[C@@H]3CO)cc1 | 0.981 ± 0.042
COc1ccc(-c2cnc3c(c2)C(=O)N([C@H](C)CO)C[C@@H](C)[C@@H](CN(C)C(=O)Nc2c(C)noc2C)O3)cc1 | 0.962 ± 0.029
N#C[C@@H]1[C@@H](c2ccccc2C2=CCCC2)[C@@H](CO)N1C(=O)NC1CCCCC1 | 1.03 ± 0.051
C/C=C/c1cnc2c(c1)C(=O)N([C@@H](C)CO)C[C@H](C)[C@@H](CN(C)C(=O)Nc1cccc(OC)c1)O2 | 0.983 ± 0.039
C[C@@H]1CN([C@H](C)CO)C(=O)c2cccc(NC(=O)c3cnccn3)c2O[C@H]1CN(C)C(=O)NC1CCCCC1 | 1.03 ± 0.073
Cc1noc(C)c1NC(=O)N(C)C[C@@H]1OCCCC[C@H](C)Oc2ccc(NC(=O)Nc3ccc(C(F)(F)F)cc3)cc2C(=O)N([C@@H](C)CO)C[C@@H]1C | 1.04 ± 0.12
CN1c2ccc(Br)cc2[C@H]2[C@H](CCN2C(=O)Cc2ccccc2)[C@H]1CO | 1.1417 ± 0.00016
CN1C(=O)c2cc(NC(=O)c3ccc4c(c3)OCO4)ccc2OC[C@H]2O[C@@H](CC(=O)O)CC[C@H]21 | 1.12 ± 0.092
CN(C)C(=O)c1cccc(-c2ccc([C@@H]3[C@@H](CO)N4CCCCN(CC5CCOCC5)C[C@@H]34)cc2)c1 | 1.05 ± 0.053
C/C=C/c1ccc([C@H]2[C@@H](CO)N3C(=O)CN(C(=O)Nc4ccc(F)cc4)C[C@@H]23)cc1 | 1.09 ± 0.053
CCCC(=O)Nc1ccc2c(c1)C(=O)N(C)C[C@@H](OC)[C@@H](C)CN(Cc1ccc(F)cc1)[C@@H](C)CO2 | 0.941 ± 0.11
C[C@@H]1CCCCO[C@@H](CN(C)S(=O)(=O)c2ccc(F)cc2)[C@@H](C)CN([C@@H](C)CO)C(=O)c2cc(N(C)C)ccc2O1 | 0
O=C(NC1CCCC1)N[C@@H]1C=C[C@@H](CC(=O)N2CCOCC2)O[C@H]1CO | 1.08 ± 0.077
CN(C)C(=O)C[C@H]1CC[C@@H]2[C@H](COc3ccc(NC(=O)C4CCCCC4)cc3C(=O)N2C)O1 | 1.01 ± 0.047
CO[C@H]1CC[C@@H]2CCOc3c(C#N)cccc3C(=O)N(C)C[C@H](OC)[C@@H](C)C(=O)N(C)C[C@H]1O2 | 1.05 ± 0.031
O=C(Nc1ccc(Cl)cc1)N1C[C@H]2[C@@H](c3ccccc31)[C@H](CO)N2CC1CCCCC1 | 1.032 ± 0.0086
COc1ccc(S(=O)(=O)Nc2ccc3c(c2)C(=O)N([C@H](C)CO)C[C@@H](C)[C@@H](CN(C)C(=O)Nc2c(C)noc2C)OCCCC[C@@H](C)O3)cc1 | 1.05 ± 0.11
CN(C)C(=O)c1ccc(-c2ccc([C@@H]3[C@@H](CO)N4C(=O)CN(C(=O)CC5CC5)C[C@@H]34)cc2)cc1 | 1.02 ± 0.062
Cc1noc(C)c1S(=O)(=O)N(C)C[C@@H]1OCc2ccccc2-c2c(n(C)c3ccccc23)C(=O)N([C@H](C)CO)C[C@H]1C | 1.001 ± 0.0088
O=C(C[C@H]1CC[C@@H]2[C@H](COC[C@H](O)CN2Cc2nccs2)O1)NCc1ccccc1Cl | 1.086 ± 0.0099
O=C(Nc1ccc(C(F)(F)F)cc1)Nc1ccc2c(c1)[C@@H]1C[C@H](CC(=O)N3CCc4ccccc4C3)O[C@H](CO)[C@@H]1O2 | 0.926 ± 0.093

SMILES | viability index
CC(C)[C@H]1C(=O)NCC/C=C/C[C@H](C)Oc2ccccc2C(=O)N1C.CC(C)[C@H]1C(=O)NCC/C=C\C[C@H](C)Oc2ccccc2C(=O)N1C | 1.03 ± 0.043
COc1ccc2c3c([nH]c2c1)[C@@H](CO)NC[C@]31CN(C1)S(=O)(=O)c1cccs1 | 0.972 ± 0.055
COCC(=O)N1CC(=O)N2[C@@H](CO)[C@H](c3ccc(-c4ccccc4F)cc3)[C@@H]2C1 | 1.06 ± 0.056
CCCNC(=O)N1CC2(C1)[C@H](c1ccccc1)[C@@H](CO)N2Cc1ccc(Cl)cc1 | 1.08 ± 0.042
CCS(=O)(=O)Nc1ccc2c(c1)C(=O)N(C)C[C@@H](OC)[C@H](C)CN(CC1CCCCC1)[C@@H](C)CO2 | 1.05 ± 0.011
O=C1C[C@H](c2ccccc2)C(=O)N[C@@H](c2ccc(F)cc2)C/C=C\CCN1 | 0.985 ± 0.024
O=C1CNC[C@@H]2[C@H](c3ccc(C#CC4CCCCC4)cc3)[C@@H](CO)N12 | 1.06 ± 0.067
COc1ccc2c3c([nH]c2c1)[C@H](CO)N(C[C@]31CN(C1)S(=O)(=O)c1ccccc1)C(=O)c1cnccn1 | 1.01 ± 0.034
CCS(=O)(=O)N1CCCCN2[C@H](C1)[C@H](c1ccc(C#Cc3ccccn3)cc1)[C@@H]2CO | 1.058 ± 0.0083
COc1ccc2c3c([C@H](CO)N(Cc4ccccc4Cl)C[C@]33CN(C3)C(=O)CN(C)C)n(C)c2c1 | 0.782 ± 0.042
COc1cccc(S(=O)(=O)N2CC[C@@H]3[C@H](CO)Nc4ccc(C#Cc5cccnc5)cc4[C@@H]32)c1 | 1.06 ± 0.03
C[C@H]1CCCn2nncc2COCCNC1=O | 1.01 ± 0.021
COc1ccc2c3c([nH]c2c1)[C@@H](CO)N(C[C@]31CCN(CC1)C(=O)c1ccncc1)C(=O)C1CC1 | 0.928 ± 0.018
C[C@@H]1CCCCO[C@@H](CN(C)Cc2ccc(C(=O)O)cc2)[C@H](C)CN([C@H](C)CO)C(=O)c2cc(N(C)C)ccc2O1 | 1.09 ± 0.15
COCC(=O)N1CC(=O)N2[C@H](CO)[C@@H](c3ccc(-c4ccccc4F)cc3)[C@@H]2C1 | 1.07 ± 0.083
COc1ccc(CN2C[C@H](O)COC[C@H]3O[C@@H](CC(=O)N(C)C)CC[C@@H]32)cc1 | 1.08 ± 0.0093
COc1cccc(CN2C[C@@H]3N[C@H](C2)[C@H]3c2ccc(-c3ccccc3C)cc2)c1 | 1.05 ± 0.12
COc1ccccc1-c1cn(CC[C@H]2CC[C@@H](NC(=O)C3CCCCC3)[C@@H](CO)O2)nn1 | 0.982 ± 0.11
C/C=C/c1ccc([C@@H]2[C@H](CO)N3C(=O)CN(C(=O)Nc4cccc(OC)c4)C[C@@H]23)cc1 | 1.07 ± 0.032
CCCN1[C@@H]2c3ccc(-c4ccncc4)c(=O)n3C[C@@H]2[C@@H](CO)[C@@H]1C(=O)NCCCN1CCOCC1 | 1.03 ± 0.024
CO[C@H]1CN(C)C(=O)c2ccc(NS(C)(=O)=O)cc2OC[C@H](C)N(C(=O)CN(C)C)C[C@@H]1C | 0.991 ± 0.069
CC(C)C(=O)Nc1ccc2c(c1)C(=O)N(C)[C@@H]1CC[C@H](CC(=O)NCCc3ccccc3)O[C@@H]1CO2 | 1.04 ± 0.015
Cc1ccccc1S(=O)(=O)N1CC[C@@H]2[C@H]1c1cc(-c3ccc(F)cc3)ccc1N[C@@H]2CO | 1.08 ± 0.033
O=C(c1cccnc1)N1CC(=O)N2[C@H](CO)[C@H](c3ccc(-c4ccccc4F)cc3)[C@@H]2C1 | 1.06 ± 0.015

SMILES | viability index
O=C(NCCN1CCCC1)c1cc2c(c(-c3cccc(C4=CCCC4)c3)n1)[C@@H](CCO)N(CC1CC1)C2 | 0.956 ± 0.14
COc1ccc2c3c([C@H](CO)NC[C@]33CCN(CC3)S(=O)(=O)c3cccc(C)c3)n(C)c2c1 | 1.01 ± 0.011
COc1cccc(C(=O)N2C[C@@H]3[C@H](c4ccccc42)[C@@H](CO)N3C(=O)c2cccc(F)c2)c1 | 0.9868 ± 0.0011
C[C@@H]1CN([C@@H](C)CO)C(=O)CCCn2cc(nn2)CO[C@H]1CN(C)S(=O)(=O)c1cccc(C#N)c1 | 1.02 ± 0.02
CO[C@H](CN(C)C(=O)c1cnccn1)[C@@H](C)CN([C@H](C)CO)S(=O)(=O)c1ccccc1 | 0.9434 ± 0.0018
O=C(CN1CCOCC1)N1CCCCN2[C@H](C1)[C@@H](c1ccc(Br)cc1)[C@@H]2CO | 1.09 ± 0.1
CN(C)C(=O)c1cccc(-c2ccc([C@H]3[C@H]4CNC[C@@H]3N4Cc3ccccc3C(F)(F)F)cc2)c1 | 1.06 ± 0.081
CCCNC(=O)N1C[C@@]2(C1)CN(Cc1ccc(F)cc1)[C@H](CO)c1[nH]c3cc(OC)ccc3c21 | 1 ± 0.083
N#Cc1cccc(-c2ccc([C@H]3[C@@H]4CN(C(=O)Cc5ccncc5)C[C@H]3N4)cc2)c1 | 1.102 ± 0.011
CC(C)NC(=O)N1Cc2cc(C(=O)NC3Cc4ccccc4C3)nc(-c3cccc(-c4cccnc4)c3)c2[C@H]1CCO | 0.764 ± 0.091
CN1CCCCN2[C@H](CO)[C@@H](c3ccc(-c4ccc(F)cc4)cc3)[C@H]2C1 | 0.984 ± 0.093
O=C(Cc1ccccn1)N1CC(=O)N2[C@H](C1)[C@@H](c1ccc(C#CCC3CCCC3)cc1)[C@@H]2CO | 0.95 ± 0.087
C/C=C/c1ccc([C@@H]2[C@@H](CO)N(C(=O)CN(C)C)C23CN(C(=O)C2CCOCC2)C3)cc1 | 1.07 ± 0.045
O=C(Nc1ccccc1F)N1C[C@H]2[C@@H](c3ccccc31)[C@@H](CO)N2C(=O)Cc1cccnc1 | 1.06 ± 0.02
O=C(Cc1ccccn1)N1CC(=O)N2[C@@H](CO)[C@H](c3ccc(C#CCC4CCCC4)cc3)[C@@H]2C1 | 1 ± 0.041
COc1ccc2c3c([C@H](CO)N(C[C@]33CCN(Cc4nccs4)CC3)C(=O)NC(C)C)n(C)c2c1 | 1.03 ± 0.065
CN1c2ccc(-c3cccc(C#N)c3)cc2[C@@H]2[C@@H](CCN2C(=O)c2cccc(F)c2)[C@@H]1CO | 0.994 ± 0.084
O=C(C[C@@H]1CC[C@H]2[C@@H](COC[C@@H](O)CN2CCC(F)(F)F)O1)NCC1CC1 | 1.11 ± 0.039
N#C[C@H]1[C@@H](c2ccccc2-c2ccccc2F)[C@H](CO)N1C(=O)c1ccccn1 | 1.04 ± 0.052
Cc1noc(C)c1NC(=O)Nc1cccc2c1O[C@H](CN(C)Cc1ccc(C(=O)Nc3ccccc3N)cc1)[C@@H](C)CN([C@@H](C)CO)C2=O | 0.95 ± 0.043
O=C(Nc1ccc(C(F)(F)F)cc1)N[C@H]1C=C[C@@H](CC(=O)N2CCCCC2)O[C@H]1CO | 1.08 ± 0.16
COc1ccc(S(=O)(=O)N(C)C[C@@H]2OCCCC[C@@H](C)Oc3ccc(NC(=O)Cc4ccccc4)cc3C(=O)N([C@H](C)CO)C[C@@H]2C)cc1 | 1.08 ± 0.08
CN1C(=O)c2cc(NC(=O)C3CCOCC3)ccc2OC[C@@H]2O[C@H](CC(=O)NCCc3ccncc3)CC[C@H]21 | 1.12 ± 0.11
